In all, about 39,000 compounds went through this assay and about 220 (0.56%) showed activity. The list shows a part of the results.
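Also: static incubation at 37 °C against the wild-type strain, values averaged over two biological replicates.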

The assay deals with Escherichia coli K-12 BW25113. In words: relative growth (OD600 normalised to plate interquartile mean) (fraction); higher = less growth inhibition, active = 0.2 or less. The conditions noted are these: 50 µM; LB; incubation time: overnight (16-24 h).
Regarding `C[C@H](CO)N1C[C@H](C)[C@@H](CN(C)Cc2ccc(C(F)(F)F)cc2)Oc2ccc(NC(=O)C3CCCCC3)cc2C1=O`, the relative growth was inactive: 0.994.

With `CO[C@@H]1CN(C)C(=O)c2ccc(NS(C)(=O)=O)cc2OC[C@@H](C)N(S(C)(=O)=O)C[C@H]1C`, the relative growth is inactive: 1.03.

For the compound `C=CCOC(=O)[C@H]1[C@@H]2C(=O)O[C@@H](c3ccccc3)[C@@H](c3ccccc3)N2[C@@H](c2ccc(OCCOC(=O)[C@H]3C[C@H]4C(=O)N[C@@H](CCCCNC(C)=O)C(=O)N4[C@H]3c3ccc(O)cc3)cc2)[C@]12C(=O)Nc1ccc(I)cc12`, the relative growth is inactive: 1.03.

With `C[C@@H]1CN([C@@H](C)CO)C(=O)c2cccc(NC(=O)c3nc4ccccc4s3)c2O[C@@H]1CN(C)C(=O)Nc1ccc(F)cc1`, the relative growth is inactive: 0.982.

`CN1CCN(C(=O)C[C@@H]2CC[C@H]3[C@@H](COC[C@H](O)CN3C(=O)C3CCOCC3)O2)CC1`: the relative growth is inactive: 1.02.

In the case of `COCC#Cc1ccc2c(c1)O[C@H](CN(C)C(=O)c1ccccc1)[C@@H](C)CN([C@H](C)CO)S2(=O)=O`, the relative growth is inactive: 0.998.

As to `COc1ccccc1OC[C@@H](O)CO`, the relative growth was inactive: 0.867.

Consider `CC(C)C[N+]1(C)Cc2ccccc2C1`, for which the relative growth is inactive: 1.01.

`CCC(=O)OC1(C(=O)SCF)C(C)CC2C3CC(F)C4=CC(=O)C=CC4(C)C3(F)C(O)CC21C` (configuration not stated): the relative growth was inactive: 0.971.

With `C[C@@H]1CN([C@@H](C)CO)C(=O)c2cc(NS(=O)(=O)c3cccs3)ccc2O[C@@H](C)CCCCO[C@@H]1CN(C)C(=O)Nc1ccc(F)cc1`, the relative growth was inactive: 1.02.

Consider `C[C@H]1CCCCO[C@H](CN(C)C(=O)Nc2ccccc2)[C@@H](C)CN([C@@H](C)CO)C(=O)c2cc(NC(=O)Nc3ccc(C(F)(F)F)cc3)ccc2O1`, for which the relative growth was inactive: 1.06.

Take `COc1cc(OC)nc(N=CNO)n1`: the relative growth is inactive: 1.02.

`CC(C)NC(=O)N(C)C[C@H]1OCc2cn(nn2)CCCC(=O)N([C@@H](C)CO)C[C@H]1C`: the relative growth was inactive: 0.977.

As for `Cc1ccc(S(=O)(=O)N2C[C@H](O)COC[C@@H]3O[C@@H](CC(=O)N[C@H]4CCN(Cc5ccccc5)C4)CC[C@H]32)cc1`, the relative growth is inactive: 0.97.

With `OCc1ccc(O)cc1`, the relative growth is inactive: 1.

Turning to `C/C=C/c1cccc(-c2nc(C(=O)NCc3cccc(OC)c3)cc3c2[C@H](CCO)N([S@@](=O)C(C)(C)C)C3)c1`, the relative growth is inactive: 1.01.

Consider `O=P(O)(O)CN(CCN(CP(=O)(O)O)CP(=O)(O)O)CP(=O)(O)O`, for which the relative growth was inactive: 0.926.

As for `C[C@H]1CN([C@@H](C)CO)C(=O)c2cc(NC(=O)Nc3ccc(F)cc3)ccc2O[C@H]1CN(C)C(=O)Nc1cccc2ccccc12`, the relative growth is inactive: 0.957.

Turning to `O=S(=O)(c1c[nH]c2ncccc12)N1CC(S(=O)(=O)N2CCOCC2)C1`, the relative growth was inactive: 0.987.

In the case of `COc1ccc(NC(=O)N(C)C[C@@H]2Oc3ccc(NS(=O)(=O)c4c(C)noc4C)cc3CC(=O)N([C@H](C)CO)C[C@H]2C)cc1`, the relative growth is inactive: 1.02.

As for `Cc1noc(C)c1NC(=O)N(C)C[C@@H]1OCCCC[C@H](C)Oc2ccc(NS(=O)(=O)c3ccc(Cl)cc3)cc2C(=O)N([C@@H](C)CO)C[C@@H]1C`, the relative growth is inactive: 0.973.

Consider `Cc1oc(=O)oc1CN1CCN(c2cc3c(cc2F)c(=O)c(C(=O)O)c2n3C(C)S2)CC1` (configuration not stated), for which the relative growth is active: 0.0438.

With `C#CCN(O[C@@H](/C=C/[C@@H](O)Cc1ccccc1)C1CC1)[C@@H](Cc1ccc(-n2cc(CCC(=O)NO)nn2)cc1)C(=O)OC`, the relative growth was inactive: 0.995.

As for `C[C@@H]1CCCCO[C@@H](CN(C)S(=O)(=O)c2ccc(F)cc2)[C@@H](C)CN([C@H](C)CO)C(=O)c2cc(NC(=O)Cc3ccccc3)ccc2O1`, the relative growth was inactive: 0.998.

Regarding `CCCCCCOc1cccc(N)c1`, the relative growth is inactive: 0.974.

Turning to `C[C@@H]1CCCCO[C@@H](CN(C)C(=O)Nc2ccc3c(c2)OCO3)[C@@H](C)CN([C@H](C)CO)C(=O)c2cc(NC(=O)Cc3ccccc3)ccc2O1`, the relative growth was inactive: 0.972.

For `CC[C@@H](O[Si](C#C[Si](C(C)C)(C(C)C)C(C)C)(C(C)C)C(C)C)c1cn(Cc2cccc(Cl)c2)nn1`, the relative growth was inactive: 1.01.

As to `COc1ccc(NC(=O)Nc2ccc3c(c2)C(=O)N([C@H](C)CO)C[C@H](C)[C@@H](CN(C)S(=O)(=O)c2ccc(OC)cc2)OCCCC[C@@H](C)O3)cc1`, the relative growth is inactive: 1.04.

As to `N#CCNC(=O)Cc1ccccc1`, the relative growth is inactive: 0.984.

For the compound `COCC#Cc1ccc2c(c1)O[C@H](CN(C)C(=O)COC)[C@H](C)CN([C@@H](C)CO)S2(=O)=O`, the relative growth was inactive: 1.01.

For `COc1ccc(cc1)CN1CC[C@]2(CC1)CN([C@@H](CO)c1[nH]c3cc(ccc3c12)OC)C(=O)CN(C)C`, the relative growth is inactive: 0.977.

As for `CC(COc1ccccc1)N(CCCl)Cc1ccccc1.Cl` (configuration not stated), the relative growth was inactive: 1.02.

Turning to `CC(C)(CO)Nc1ncnc(N)c1[N+](=O)[O-]`, the relative growth is inactive: 0.998.

Consider `COc1cccc(NC(=O)N(C)C[C@@H]2Oc3cc(C#Cc4ccncc4)ccc3S(=O)(=O)N([C@H](C)CO)C[C@@H]2C)c1`, for which the relative growth is inactive: 0.986.

Turning to `CCC(CC)C(=O)N1c2ccccc2Sc2ccccc21`, the relative growth is inactive: 1.01.

Regarding `COc1ccc(NC(=O)Nc2ccc3c(c2)C(=O)N([C@H](C)CO)C[C@H](C)[C@H](CN(C)S(=O)(=O)c2cccs2)OCCCC[C@H](C)O3)cc1`, the relative growth is inactive: 1.06.

In the case of `C[C@H](CO)N1C[C@H](C)[C@H](CN(C)C(=O)NC2CCCCC2)OCCCC[C@H](C)Oc2ccc(NS(=O)(=O)c3ccc(F)cc3)cc2C1=O`, the relative growth is inactive: 0.999.

Consider `O=C(C[C@H]1C=C[C@H](NC(=O)CN2CCOCC2)[C@H](CO)O1)NCCc1ccncc1`, for which the relative growth is inactive: 0.975.

`C[C@@H]1CCCCO[C@H](CN(C)Cc2ccc(Cl)c(Cl)c2)[C@@H](C)CN([C@H](C)CO)C(=O)c2cc(NS(=O)(=O)c3cccs3)ccc2O1`: the relative growth was inactive: 1.01.

`C[C@@H]1CN([C@H](C)CO)C(=O)c2cc(NS(=O)(=O)c3ccc(Cl)cc3)ccc2O[C@@H]1CN(C)C(=O)Nc1cccc2ccccc12`: the relative growth is inactive: 1.01.

Regarding `Cc1cc(S(=O)(=O)N2CCCO[C@@H]2CNC(=O)C(=O)NCc2ccncc2)ccc1F`, the relative growth is inactive: 0.984.

For the compound `COc1ccc(NC(=O)N(C)C[C@H]2Oc3ncc(C#C[C@@H](C)O)cc3C(=O)N([C@@H](C)CO)C[C@@H]2C)cc1`, the relative growth was inactive: 1.01.

For the compound `C[C@@H]1CN([C@@H](C)CO)C(=O)c2cc(NC(=O)NC3CCCCC3)ccc2O[C@@H](C)CCCCO[C@@H]1CN(C)Cc1ccccc1`, the relative growth was inactive: 1.01.

Regarding `Cc1noc(C)c1NC(=O)Nc1ccc2c(c1)C(=O)N([C@@H](C)CO)C[C@@H](C)[C@@H](CN(C)C(=O)Nc1cccc3ccccc13)O2`, the relative growth is inactive: 1.01.

As to `Cc1noc(C)c1S(=O)(=O)Nc1ccc2c(c1)CC(=O)N([C@H](C)CO)C[C@@H](C)[C@@H](CN(C)CC1CC1)O2`, the relative growth is inactive: 0.955.

Take `COCCOC(=O)N1C(=O)[C@@]2(c3cc(C#CCCO)ccc31)[C@H](C(=O)NC[C@H](O)c1ccccc1)[C@H]1C(=O)O[C@H](c3ccccc3)[C@H](c3ccccc3)N1[C@@H]2c1ccccc1OCCO`: the relative growth was inactive: 0.973.

With `COc1ccc(NC(=O)Nc2ccc3c(c2)C(=O)N([C@H](C)CO)C[C@H](C)[C@@H](CN(C)S(=O)(=O)c2ccc(Cl)cc2)OCCCC[C@@H](C)O3)cc1`, the relative growth is inactive: 1.03.

On to `COc1ccc(NC(=O)Nc2ccc3c(c2)C(=O)N([C@@H](C)CO)C[C@H](C)[C@@H](CN(C)CC2CCCCC2)OCCCC[C@H](C)O3)cc1`, for which the relative growth was inactive: 0.984.

With `C[C@H](CO)N1C[C@H](C)[C@H](CN(C)S(=O)(=O)c2cn(C)cn2)OCc2cn(nn2)CCCC1=O`, the relative growth is inactive: 0.955.

Consider `CCCNC(=O)N1C[C@]2(CN(C2)S(=O)(=O)c2ccccc2)c2c(n(c3cc(ccc23)OC)C)[C@H]1CO`, for which the relative growth was inactive: 1.01.

In the case of `Cc1noc(C)c1NC(=O)N(C)C[C@@H]1OCCCC[C@@H](C)Oc2ccc(NC(=O)CCC(F)(F)F)cc2C(=O)N([C@@H](C)CO)C[C@H]1C`, the relative growth is inactive: 1.

Regarding `C[C@@H]1CCCCO[C@@H](CN(C)S(=O)(=O)c2cn(C)cn2)[C@@H](C)CN([C@@H](C)CO)C(=O)c2cc(N(C)C)ccc2O1`, the relative growth was inactive: 0.959.

For `C[C@H](CO)N1C[C@H](C)[C@@H](CN(C)S(=O)(=O)c2ccccc2)OCCCC[C@H](C)Oc2ccc(NC(=O)Nc3ccc4c(c3)OCO4)cc2C1=O`, the relative growth is inactive: 1.01.

For the compound `Cc1noc(C)c1NC(=O)Nc1ccc2c(c1)CC(=O)N([C@H](C)CO)C[C@@H](C)[C@@H](CN(C)S(=O)(=O)c1c(C)noc1C)O2`, the relative growth was inactive: 0.979.

As to `C[C@@H]1CN([C@H](C)CO)C(=O)c2cccc(NS(=O)(=O)c3ccccc3)c2O[C@H]1CN(C)C(=O)Nc1cccc2ccccc12`, the relative growth was inactive: 0.987.

Take `Nc1ccccc1C(=O)C[C@H](N)C(=O)O`: the relative growth is inactive: 0.992.

On to `COCCc1ccc(OCC(O)CNC(C)C)cc1.O=C(O)C(O)C(O)C(=O)O` (configuration not stated), for which the relative growth was inactive: 1.17.

As to `C1COC[C@H](c2nn[nH]n2)N1`, the relative growth was inactive: 1.

With `Cc1noc(C)c1S(=O)(=O)N(C)C[C@H]1Oc2ccc(N(C)C)cc2CC(=O)N([C@H](C)CO)C[C@@H]1C`, the relative growth is inactive: 1.02.

For the compound `Cc1noc(C)c1S(=O)(=O)Nc1cccc2c1O[C@H](CN(C)S(=O)(=O)c1cn(C)cn1)[C@H](C)CN([C@H](C)CO)C2=O`, the relative growth was inactive: 1.

For the compound `Cc1noc(C)c1S(=O)(=O)N(C)C[C@H]1Oc2ccc(NC(=O)Cc3ccccc3)cc2CC(=O)N([C@H](C)CO)C[C@H]1C`, the relative growth was inactive: 1.01.

For the compound `COc1cc(C)nc2nc(S(C)(=O)=O)nn12`, the relative growth is inactive: 1.02.
